Source: the supplement of paper PMC4967469

How the values were obtained:
Assay in all cases: Viability of human cancer cell lines after 72 h of drug (GDSC screen)
XAV 939 = compound: Oc1nc(-c2ccc(C(F)(F)F)cc2)nc2c1CSCC2 [XAV 939]; details: top dose 5 µM; top dose inferred
Description: (§1)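 Human cancer cell lines in 384-well plates, medium with 10% serum, drug for 72 h over a 256-fold dose range (nine 2-fold or five 4-fold steps up to the top dose). Adherent lines were fixed and stained with the nucleic acid dye Syto60, suspension lines read with resazurin; signal relative to control wells, capped at 0 and 100%. One two-parameter sigmoid per drug and line, fitted in a mixed model over all curves with the slope shared within a line.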

AZD7762 = compound: NC(=O)Nc1cc(-c2cccc(F)c2)sc1C(=O)N[C@H]1CCCNC1 [AZD7762]; details: top dose 2 µM
Description: as §1

BMS-345541 = compound: Cc1ccc2nc(NCCN)c3ncc(C)n3c2c1 [BMS-345541]; details: top dose 16 µM
Description: as §1

YK 4-279 = compound: COc1ccc(C(=O)CC2(O)C(=O)Nc3c(Cl)ccc(Cl)c32)cc1 [YK 4-279]; details: top dose 10 µM
Description: as §1

NPK76-II-72-1 = compound: COc1cc(C(=O)NC2CCN(C)CC2)ccc1Nc1ncc2c(n1)N(C1CCCC1)C(C)CC(=O)N2C [NPK76-II-72-1]; details: top dose 10.24 µM; top dose inferred
Description: as §1

Etoposide = compound: COc1cc([C@@H]2c3cc4c(cc3[C@@H](O[C@@H]3O[C@@H]5CO[C@@H](C)O[C@H]5[C@H](O)[C@H]3O)[C@H]3COC(=O)[C@H]23)OCO4)cc(OC)c1O [Etoposide]; details: top dose 16 µM
Description: as §1

Bexarotene = compound: C=C(c1ccc(C(=O)O)cc1)c1cc2c(cc1C)C(C)(C)CCC2(C)C [Bexarotene]; details: top dose 8 µM
Description: as §1

GSK-650394 = compound: O=C(O)c1ccc(-c2c[nH]c3ncc(-c4ccccc4)cc23)cc1C1CCCC1 [GSK-650394]; details: top dose 16 µM; top dose inferred
Description: as §1

| Cell Line | AUC (XAV 939) | pIC50 (XAV 939) | AUC (AZD7762) | pIC50 (AZD7762) | AUC (BMS-345541) | pIC50 (BMS-345541) | AUC (YK 4-279) | pIC50 (YK 4-279) | AUC (NPK76-II-72-1) | pIC50 (NPK76-II-72-1) | AUC (Etoposide) | pIC50 (Etoposide) | AUC (Bexarotene) | pIC50 (Bexarotene) | AUC (GSK-650394) | pIC50 (GSK-650394) |
| --- | --- | --- | --- | --- | --- | --- | --- | --- | --- | --- | --- | --- | --- | --- | --- | --- |
| BC-1 (B-cell lymphoma, suspension) | 0.937 | < 5.30 | 0.91 | < 5.70 | 0.807 | 5.17 | 0.498 | 6.21 | 0.667 | 5.76 | 0.402 | 6.25 | 0.965 | < 5.10 | 0.709 | 5.46 |
| BE2-M17 (neuroblastoma, adherent) | 0.984 | < 5.30 | 0.769 | 6.11 | 0.939 | < 4.80 | 0.684 | 5.68 | 0.89 | < 4.99 | 0.855 | 4.87 | 0.982 | < 5.10 | 0.986 | < 4.80 |
| BFTC-905 (bladder, adherent) | 0.939 | < 5.30 | 0.829 | 5.99 | 0.893 | 4.84 | 0.552 | 6.07 | 0.859 | 5.18 | 0.394 | 6.27 | 0.913 | < 5.10 | 0.462 | 6.10 |
| BHT-101 (thyroid, adherent) | 0.677 | 6.00 | 0.824 | 5.91 | 0.878 | < 4.80 | 0.644 | 5.80 | 0.965 | < 4.99 | 0.684 | 5.48 | 0.973 | < 5.10 | 0.888 | < 4.80 |
| BICR10 (head and neck, adherent) | 0.966 | < 5.30 | 0.434 | 7.10 | 0.963 | < 4.80 | 0.714 | 5.55 | 0.978 | < 4.99 | 0.823 | 4.94 | 0.938 | < 5.10 | 0.978 | < 4.80 |
| BICR22 (head and neck, adherent) | 0.905 | < 5.30 | 0.738 | 6.17 | 0.977 | < 4.80 | 0.654 | 5.75 | 0.967 | < 4.99 | 0.904 | < 4.80 | 0.95 | < 5.10 | 0.982 | < 4.80 |
| BICR78 (head and neck, adherent) | 0.967 | < 5.30 | 0.525 | 6.83 | 0.946 | < 4.80 | 0.638 | 5.80 | 0.925 | < 4.99 | 0.696 | 5.41 | 0.965 | < 5.10 | 0.976 | < 4.80 |
| BL-41 (Burkitt lymphoma, suspension) | 0.994 | < 5.30 | 0.404 | 7.14 | 0.829 | 5.16 | 0.567 | 6.04 | 0.581 | 6.00 | 0.577 | 5.81 | 0.989 | < 5.10 | 0.645 | 5.64 |
| BT-20 (breast, adherent) | 0.965 | < 5.30 | 0.866 | < 5.70 | 0.907 | < 4.80 | 0.821 | 5.12 | 0.968 | < 4.99 | 0.736 | 5.25 | 0.975 | < 5.10 | 0.962 | < 4.80 |
| BT-483 (breast, adherent) | 0.975 | < 5.30 | 0.949 | < 5.70 | 0.917 | < 4.80 | 0.966 | < 5.00 | 0.969 | < 4.99 | 0.946 | < 4.80 | 0.969 | < 5.10 | 0.975 | < 4.80 |
| BV-173 (chronic myeloid leukaemia, suspension) | 0.981 | < 5.30 | 0.431 | 7.08 | 0.836 | 5.05 | 0.574 | 6.01 | 0.882 | 5.06 | 0.742 | 5.35 | 0.948 | < 5.10 | 0.709 | 5.45 |
| Becker (glioma, adherent) | 0.922 | < 5.30 | 0.745 | 6.16 | 0.923 | < 4.80 | 0.554 | 6.05 | 0.907 | < 4.99 | 0.83 | 4.92 | 0.927 | < 5.10 | 0.953 | < 4.80 |
| BxPC-3 (pancreas, adherent) | 0.926 | < 5.30 | 0.625 | 6.54 | 0.866 | < 4.80 | 0.7 | 5.61 | 0.859 | < 4.99 | 0.856 | 4.81 | 0.982 | < 5.10 | 0.86 | < 4.80 |
| C3A (liver, adherent) | 0.973 | < 5.30 | 0.955 | < 5.70 | 0.95 | < 4.80 | 0.794 | 5.32 | 0.988 | < 4.99 | 0.744 | 5.29 | 0.948 | < 5.10 | 0.828 | 4.98 |
| CA46 (Burkitt lymphoma, suspension) | 0.95 | < 5.30 | 0.834 | 5.84 | 0.716 | 5.37 | 0.762 | 5.42 | 0.676 | 5.68 | 0.913 | < 4.80 | 0.956 | < 5.10 | 0.906 | < 4.80 |
| CAKI-1 (kidney, adherent) | 0.843 | < 5.30 | 0.64 | 6.43 | 0.811 | 4.84 | 0.818 | 5.01 | 0.972 | < 4.99 | 0.757 | 5.09 | 0.799 | 5.20 | 0.933 | < 4.80 |
| CAL-29 (bladder, adherent) | 0.915 | < 5.30 | 0.675 | 6.40 | 0.934 | < 4.80 | 0.742 | 5.49 | 0.953 | < 4.99 | 0.67 | 5.51 | 0.98 | < 5.10 | 0.981 | < 4.80 |

pIC50: −log10 of the molar value. A lower IC50 marks a more sensitive line; a fit beyond the top or the lowest dose is shown as a bound at that dose. AUC sums up the same curve from the lowest dose to the 256-fold higher top dose: 1 means no effect, lower means more sensitive. For some assays here: A top dose marked as inferred comes from the curve model; the source does not state it.
